# In publication PMC12136788:
# The list shows a part of the results.
# B1: chr11:46405157:46405158:+_ENSG00000110492_ENST00000395566|hu_hu|hu_hu_hu_mus_False|68_98 (ssRNA)
# RNA: GGGAGUUCUACAGUCCGACGAUCCCCUCCCCACUUUGGCUGGGGAGUGUGGGCGUGAGAGGACAGGAUGAUUGAUUAGAGCUGACAGGAAGACAAAAGGCACUGGUGGGUUAUAUCUUGGGCCUGUGGGAGAGGAGGGCUCCGCAACAGAGGAUUGAGCAUCA
# B2: chr8:72619762:72619763:-_ENSMUSG00000002341_ENSMUST00000002412|mus_mus|FALSE|FALSE (ssRNA)
# RNA: GGGAGUUCUACAGUCCGACGAUCCAGGAGGAUUGAGACUUCAAGGACAUCUUUCUACAAUAGUGAGUUCGAGGCCAGCCUAGUUUGGGGGUUGGAGGUGUUGGAAUUGGGAGGGAGGAAGAAGAAAGGGGAAAAAAAAAGAAACAACAGAGGAUUGAGCAUCA
# B3: chr17:61655871:61655872:+_ENSG00000136485_ENST00000310827|hu_mus|motif|central (ssRNA)
# RNA: GGGAGUUCUACAGUCCGACGAUCGGUAGGGUACGGGUGGUCAAAGGUGUUUCGGCAAAUAAACUCUGAACUCUCCUCAUCGGAACCAACAAGCUGAACCUUGUUGUUGUACUCUUCCACGAAGCUGCCCAGCGCCAGGCGAAACAACAGAGGAUUGAGCAUCA
# B4: chr19:46159329:46159330:+_ENSMUSG00000015176_ENSMUST00000165017|mus_mus|FALSE|FALSE (ssRNA)
# RNA: GGGAGUUCUACAGUCCGACGAUCUACAACAGUCAAGUUGUUGCAAAAUGUCUGUCAGAAAAGCUUACUUCGAAAUUAAAACUAAAAGUACUGUAAACAUGUAGCAGUAACAGCUACCAAGAACAAAACAAAGACAGCUGCAUGCAACAGAGGAUUGAGCAUCA
# B5: chr9:80412558:80412559:-_ENSG00000156052_ENST00000286548|hu_mus|FALSE|FALSE (ssRNA)
# RNA: GGGAGUUCUACAGUCCGACGAUCAGUGGGGACUCGAACUCUAAGCACGUCUUGUUGUGUAGGCAGAUAGGAAGGGUCGGCUACACGGUCCAAGUCAUUCAGAUAGUAUUUGGUAGAGUCAGAUAACUGAUAUUCCCGUCGUCUCAACAGAGGAUUGAGCAUCA
# B6: chr3:63791606:63791607:+_ENSMUSG00000027823_ENSMUST00000029405|mus_hu|FALSE|FALSE (ssRNA)
# RNA: GGGAGUUCUACAGUCCGACGAUCAAGCAAAACAACUUCUUCCUUCUGAAGGCCCCUGAAUAAUGAACAUGUAUUAUCCACACUAAUGUUGAAAACUCCAUCUUCUCUGACACUUUUUUUGUGCACAGUACCUCCAAAUACCUUCAACAGAGGAUUGAGCAUCA
# Biological target: T1, UNK ZnF1-3 (human, UniProt Q9C0B0 31-174)
# T1 sequence: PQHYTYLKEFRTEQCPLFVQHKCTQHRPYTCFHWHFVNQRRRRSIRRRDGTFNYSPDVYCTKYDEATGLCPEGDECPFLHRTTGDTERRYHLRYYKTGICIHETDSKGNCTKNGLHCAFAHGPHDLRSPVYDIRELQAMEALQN
# Assay: nsRBNS (natural sequence RNA bind-n-seq); RBNS binding buffer (assumed for nsRBNS): 25 mM Tris pH 7.5, 150 mM KCl, 3 mM MgCl2, 0.01% Triton X-100, 500 ug/ml BSA, 20 U/ml SUPERase-In, 4 C; UNK is unkempt and MSI1 is Musashi-1; names of the RNAs are library labels; protein concentration not given here; high values mean tight binding
row,Binder,binding signal
1,B1,1.81 enrichment R
2,B2,1.9 enrichment R
3,B3,0.965 enrichment R
4,B4,1.35 enrichment R
5,B5,0.681 enrichment R
6,B6,1.31 enrichment R
